# According to publication PMC4336329 (PLoS ONE, 2015):
# Out of some 310,000 compounds screened, about 14,000 (4.5%) showed an effect of 50% or more. Effects have a minus sign here. This is one part of the list.
# Molecular target: human ether-à-go-go-related gene (hERG) potassium channel (human, UniProt Q12809)
# Experiment: primary screen, population patch clamp on CHO cells stably expressing hERG
# 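Note: peak tail current of the secondary pulse compared with the same well before compound.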
# human ether-à-go-go-related gene (hERG) potassium channel, sequence (Q12809 whole entry, looked up): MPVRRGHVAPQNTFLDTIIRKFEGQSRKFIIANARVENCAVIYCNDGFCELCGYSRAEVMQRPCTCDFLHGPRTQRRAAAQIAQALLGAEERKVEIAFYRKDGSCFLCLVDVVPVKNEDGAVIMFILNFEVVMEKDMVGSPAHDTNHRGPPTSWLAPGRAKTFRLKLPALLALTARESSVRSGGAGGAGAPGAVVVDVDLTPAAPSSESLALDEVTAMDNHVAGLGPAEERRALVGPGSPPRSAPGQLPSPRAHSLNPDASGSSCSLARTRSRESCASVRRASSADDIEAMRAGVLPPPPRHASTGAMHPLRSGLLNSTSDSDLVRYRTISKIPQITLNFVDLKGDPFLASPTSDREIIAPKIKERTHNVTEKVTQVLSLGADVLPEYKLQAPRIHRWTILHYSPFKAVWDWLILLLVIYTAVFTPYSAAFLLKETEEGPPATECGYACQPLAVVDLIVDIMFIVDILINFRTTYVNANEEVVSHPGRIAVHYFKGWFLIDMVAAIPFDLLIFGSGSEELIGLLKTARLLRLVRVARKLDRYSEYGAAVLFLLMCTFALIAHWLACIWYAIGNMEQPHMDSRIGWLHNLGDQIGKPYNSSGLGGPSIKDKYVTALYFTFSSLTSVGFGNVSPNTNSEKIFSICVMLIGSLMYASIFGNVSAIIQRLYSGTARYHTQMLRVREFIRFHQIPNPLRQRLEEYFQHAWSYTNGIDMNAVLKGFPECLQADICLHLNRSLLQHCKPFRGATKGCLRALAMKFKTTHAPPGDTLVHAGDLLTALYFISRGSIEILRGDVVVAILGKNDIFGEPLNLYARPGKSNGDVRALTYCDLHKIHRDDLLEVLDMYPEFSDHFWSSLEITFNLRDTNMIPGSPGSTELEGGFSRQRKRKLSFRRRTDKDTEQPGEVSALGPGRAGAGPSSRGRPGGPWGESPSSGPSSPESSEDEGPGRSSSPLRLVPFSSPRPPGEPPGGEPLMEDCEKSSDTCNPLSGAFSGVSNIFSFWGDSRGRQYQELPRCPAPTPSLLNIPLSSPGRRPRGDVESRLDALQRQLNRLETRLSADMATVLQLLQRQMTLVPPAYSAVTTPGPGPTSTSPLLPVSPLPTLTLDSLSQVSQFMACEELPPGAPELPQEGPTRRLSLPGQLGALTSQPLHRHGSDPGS
row,Structure (SMILES),"hERG current change (%, negative = inhibition) at 10uM"
1,COc1cccc(C2C3=C(N=c4s/c(=C\c5ccc(OCC(=O)O)cc5)c(=O)n42)c2ccccc2CC3)c1 (stereo not drawn),0.67%
2,Cc1ccc(O)c(C(=O)c2cnn(-c3ccc(S(=O)(=O)N4CCOCC4)cc3[N+](=O)[O-])c2)c1,5.09%
3,Cc1ccc(SCC(=O)NCC2COc3ccccc3O2)cc1 (stereo not drawn),-26.9%
4,CCN(CC)S(=O)(=O)c1cccc(-c2nnc(SCCCC(=O)c3ccc(F)cc3)o2)c1,-36.1%
5,O=[N+]([O-])c1ccc(N2CCNCC2)cc1NCc1ccco1,-28.2%
6,O=C(Nc1ccc(N2CCOCC2)cc1)c1ccc([N+](=O)[O-])o1,7.94%
7,CN(CCC1CCOCC1)C(=O)CC1C(=O)NCCN1Cc1ccoc1 (stereo not drawn),13.2%
8,CCOc1ccc(NC(=O)CSc2nnc(Cc3cccn3C)n2-c2ccc(F)cc2)cc1,-23.5%
9,Cc1ccc(SCCNC(=O)c2ccc(C)c([N+](=O)[O-])c2)cc1,-20.2%
10,CCCCCCCCCCSc1n[nH]c(NC(C)=O)n1,5.05%
11,Nc1cccc(-c2cn3cccnc3n2)c1,34.5%
12,CCN1CCN(S(=O)(=O)c2ccc(OC)c(NC(=O)c3ccccc3)c2)CC1,-49%
13,O=C(NNc1cccc(Cl)n1)Nc1cccc(C(F)(F)F)c1,5.71%
14,CC(C)CNC(=S)NNC(=O)c1ccc2c(c1)OCO2,3.43%
15,COc1ccc(NC(=O)N2CCCC2C(=O)Nc2ccc(C)cc2)cc1 (stereo not drawn),-11.7%
16,C=CCn1c(SCC(=O)Nc2ncc(Cc3cc(Cl)ccc3Cl)s2)nnc1-c1ccncc1,7.9%
17,COC(=O)C1=C(C)NC(=O)NC1c1ccc([N+](=O)[O-])o1 (stereo not drawn),21.2%
18,O=C(NCCc1cccc(F)c1)/C(=C/c1cccnc1)NC(=O)c1ccccc1,-36.4%
19,Cc1ccccc1/C=N/Nc1nc2ccccc2c(=O)n1O,14.8%
20,O=C(CCCn1c(=O)[nH]c2ccsc2c1=O)N1CCCCC1,13.2%
21,Cc1cc(C(=O)N2CCC(Cc3ccccc3)CC2)ccc1[N+](=O)[O-],-38.5%
22,COc1cccc2sc(/N=C/N(C)C)nc12,16.4%
23,COc1cccc(NC(=O)CSC(N)=O)c1,12.4%
24,BrC(=C\c1ccccc1)/C=N/Nc1nc(N2CCOCC2)nc(N2CCOCC2)n1,-42%
25,NNS(=O)(=O)c1ccc(Cc2ncc(C(F)(F)F)cc2Cl)s1,2.61%
26,O=C(Nc1ccc(F)c(Cl)c1)c1cncs1,16.4%
27,O=C(O)CCCCCCCCCCP(=O)(c1ccccc1)c1ccccc1,-7.05%

row,Structure (SMILES),"hERG current change (%, negative = inhibition) at 10uM"
1,CCOC(=O)C[N+]1(C)CCN(C(C)=O)CC1.[Br-],6.35%
2,O=S(=O)(Nc1cc(S(=O)(=O)N2CCOCC2)ccc1O)c1ccc2c(c1)OCCCO2,9.89%
3,O=S(=O)(/N=C(/Nc1ccccn1)c1ccccc1)c1ccc(F)cc1,-12.3%
4,COc1ccc(-c2nc3ccccc3n2Cc2ccccc2)cc1,-30.7%
5,COc1cccc(C(=O)OCCN2CCCCC2)c1.Cl,-14.7%
6,O=C(O)C(F)(F)F.c1cn2c(NC3CCCCC3)c(-c3ccc(SC4CCCCC4)cc3)nc2cn1,9.49%
7,CC1=C(C(=O)Nc2cc(C(=O)N3CCN(c4cccc(C)c4C)CC3)ccc2C)SCCO1,-34.5%
8,CCC(=O)N(Cc1ccco1)c1nc(-c2cc(OC)ccc2OC)cs1,1.45%
9,CC(C)(CC(=O)N1CCN(c2ccc(Cl)cc2)CC1)CC1=NS(=O)(=O)c2ccccc2N1,-61.1%
10,CC1(C)C=Cc2c(ccc3c2OC[C@@H](c2ccc(O)cc2O)C3)O1,11%
11,O=C(CCN1C(=O)c2ccccc2S1(=O)=O)Nc1nc2c(s1)CCCC2,-28%
12,COc1cccc(NC(=O)c2c([N+](=O)[O-])cnn2C)c1,17.4%
13,COC(=O)CC1C(=O)NCCN1C(=S)NC(=O)c1sc2ccccc2c1Cl (stereo not drawn),0.408%
14,COc1ccc(CCn2cnc3c([nH]c4ccccc43)c2=O)cc1,7.96%
15,CC(C)(C)c1ccc(C(=O)NCC(=O)OCC(=O)Nc2ccccc2[N+](=O)[O-])cc1,-21%
16,COc1ccc(CN2C(=NC(=O)C3CCCO3)SC3CS(=O)(=O)CC32)cc1 (stereo not drawn),-15.8%
17,Cc1ccc(C(=O)NCC(=O)OCC(=O)N(CC(C)C)c2c(N)n(Cc3ccccc3)c(=O)[nH]c2=O)cc1,4.38%
18,Cc1c(CN2CCC(CO)(CC3CCCCO3)CC2)cnn1C (stereo not drawn),29%
19,Cc1ccc(CN2CCCC(CO)(Cc3ccccc3C)C2)s1 (stereo not drawn),-37.7%
20,Cc1c(NS(=O)(=O)c2ccc(C(=O)NCc3ccccc3)cc2)c(=O)n(-c2ccccc2)n1C,8.77%
21,Cc1ccsc1-c1nc(CN(C)C(C2CC2)C2CC2)c(C)o1,-76%
22,Cc1[nH]n(-c2cccc3ccccc23)c(=O)c1/C=N/c1sc2c(c1C#N)CCC2,7.54%
23,COc1ccc(CCNC(=O)COC(=O)c2cc(OC)c(OC)cc2OC)cc1,2.31%
24,O=C1N[C@@H](Cc2ccccc2)C(=O)N2[C@H]3Nc4ccccc4[C@@]3([C@]34C[C@H]5C(=O)N[C@@H](Cc6ccccc6)C(=O)N5[C@H]3Nc3ccccc34)C[C@@H]12,11.3%
25,CCc1nc(SCC(=O)c2cc(C)ccc2C)n[nH]1,3.15%
26,O=C(c1ccc2c3c(cccc13)CC2)C1CCCN(Cc2ccc(OCCO)cc2)C1 (stereo not drawn),-70.4%
27,Cc1oc(-c2ccccc2)cc1C(=O)Nc1ccc2ccccc2c1,11.9%
